According to article PMC12136788:
The other results are listed elsewhere or left out.

B1: chr4:83347727:83347728:-_ENSG00000152795_ENST00000602300|hu_mus|FALSE|FALSE (ssRNA)
RNA: GGGAGUUCUACAGUCCGACGAUCCCAGUAUAAUCAUAGCCGCCAUAGCCACUAUAGUUCUGAUCACCACCAUAGGCACUAUUAUAAUUUCCAUAUCCUUGAUCAUAAUAGUUAUUAAAUCCUUGGUUCCAGUUUUGGCCCUGACAACAGAGGAUUGAGCAUCA
B2: chr11:77340908:77340909:-_ENSG00000074201_ENST00000525064|hu_hu|hu_hu_hu_mus_True|8_48 (ssRNA)
RNA: GGGAGUUCUACAGUCCGACGAUCGUUUGGAUCCCUGGACACCGCAUGUAAACUAAUGGUGGGGUAUUCCAGUGAGAAUCCUAAUCCAGAGCCAUCUAACCAGGACAGGCGGCUCUCCGCGAUGUAAAGGGUACCAGUGCCGAGCAACAGAGGAUUGAGCAUCA
B3: chr10:98431539:98431540:+_ENSMUSG00000019943_ENSMUST00000020107|mus_mus|motif|central (ssRNA)
RNA: GGGAGUUCUACAGUCCGACGAUCCGUAAUUCCAAAGUCUCCAUCAUGGUUAGCUUCUUUCAAAGAGUUCUUCACACCGCGGUACGCAACUGAGUUGUUGGCCAUGUCGCCCAUCACAAGGAUAAUUUAUUAGGAGGAAAAUGUCAACAGAGGAUUGAGCAUCA
B4: chr17:64630434:64630435:-_ENSMUSG00000024083_ENSMUST00000172818|mus_mus|FALSE|FALSE (ssRNA)
RNA: GGGAGUUCUACAGUCCGACGAUCCCUGUUUAUUGUUUAUGAUUUACACGGAAAAUGCCAGGCUGGGAUUGUAGACCAAUAAACCAAUCAUCACAGUUAGACCUGGGCUUUUGAAAACCUUGCAUUCCGUUUUAACAGUUCAUACAACAGAGGAUUGAGCAUCA
B5: 117583245_117583365_974_3pUTR_ENSMUSG00000025571_ENSMUST00000138299|mouse|control|control (ssRNA)
RNA: GGGAGUUCUACAGUCCGACGAUCCCUCCAUUCCCUUCCUUCUGCACAGCACUGCUGGAUCCGUUCUGCUUAGCACUUAAUGCUGAGUUCACAGUGUCUCCAUUCCCUUGACUGAACCCACAAUUGGUACUUCCUGUGGCAGGGCAACAGAGGAUUGAGCAUCA
B6: 37820842_37820962_92_5pUTR_ENSMUSG00000029833_ENSMUST00000120428|mouse|control|control (ssRNA)
RNA: GGGAGUUCUACAGUCCGACGAUCGGCCGGAAGACGCGGAGCUGUCAACGGGGACCGGUUCCCGCACCGCGACGCCGCCGCGCGGGCCGAUAGGCAAACCGCCACCGAGACGCUCGAUUCCGCCCAGCGCGCCCGCCCGUGCCUCAACAGAGGAUUGAGCAUCA
B7: chr1:220355683:220355684:-_ENSG00000118873_ENST00000358951|hu_mus|motif|central (ssRNA)
RNA: GGGAGUUCUACAGUCCGACGAUCGCUGUGGCACAUCUCUUCAGUGGAGCUUUCUCCAUGCAAACACUUCCAGAAAAAGAAACUGCCGGGAGCCACACACUCCUCCUCUCCGACCUUCCUUAUGCUCAGUGCAUCCUUCUCAUACAACAGAGGAUUGAGCAUCA
B8: 10099421_10100641_605_CDS_ENSG00000071127_ENST00000499869|human|control|control (ssRNA)
RNA: GGGAGUUCUACAGUCCGACGAUCGCUCUGCUUGAUGUCCACGCUGUUGAUGACUUUGUUGUGUCCUGUAAUCUCGCCCACAGAAGAGCCACUAUCCCAGAGGAAGACUGCUCCAAACUUCUCCCUUCCUUCCCCGACCACGGCCAACAGAGGAUUGAGCAUCA
B9: chr13:29242638:29242639:+_ENSG00000132963_ENST00000380842|hu_hu|FALSE|FALSE (ssRNA)
RNA: GGGAGUUCUACAGUCCGACGAUCGAAUUCCAUCUGUAAUUUUAGCGGAGCAAAUAGACCCUGAAUGUUUCUCAGUGUGGAAAAAUUCAUUUUAUCUUGGUUGAGCUGGAAAUUUUUUUCUGAUAAUUCAAGGGGAUGACUAGGCAACAGAGGAUUGAGCAUCA
B10: chr4:17845017:17845018:+_ENSG00000109805_ENST00000514176|hu_mus|hu_hu_hu_mus_False|1_1 (ssRNA)
RNA: GGGAGUUCUACAGUCCGACGAUCGCUCUCUUAACUUGUAUCUUCAUUAAGGAACUCUGCAAGGUUAAGUUUACUUUUCUGUAGCGCAGCUGUUUUGGCUCGUCUGGGUAAUCUCAUCUUCAUUUCUGAUGGUGGUUUGGAACUCAACAGAGGAUUGAGCAUCA
B11: 34959321_34959441_1601_3pUTR_ENSMUSG00000029106_ENSMUST00000114338|mouse|control|control (ssRNA)
RNA: GGGAGUUCUACAGUCCGACGAUCCUUCCGUUCUGCCCCUCCUCAGAAGCGUCAUCACCCCGGCCAGAGUGCAGCCAUCUUGUCUUCUCUCGCUGCUGCUUCUGAAAACUGUGCCUGAGCGGCGAGCAAGUGCCCGAAUCGCCACAACAGAGGAUUGAGCAUCA
B12: 98547814_98548547_4467_CDS_ENSG00000196367_ENST00000456197|human|control|control (ssRNA)
RNA: GGGAGUUCUACAGUCCGACGAUCCCUUCUCAAAGCUGUACAAGAAAGCAGGAUUCAAGAUAUGCUGCAGAACUUUAGCUUUUAAUUCAUCUCCGAAGUUGGGGUCGUUGAAGUCUACAAAGCGAAAGAACAGGGCACGUUUCUCAACAGAGGAUUGAGCAUCA
B13: chr4:25749455:25749456:-_ENSG00000091490_ENST00000264868|hu_hu|hu_hu_hu_mus_False|8_58 (ssRNA)
RNA: GGGAGUUCUACAGUCCGACGAUCGCACUAUGACCUCUAGAAAAAUCCACAGGGGGAAAAAAUGUAAACCAAUGUACAAAGCUAUUGCCUUCCCUGUGUGUGGAGUGUUUGUCUCAAGGCUCCUUCUUGCCUUAUAAUUUGGGACAACAGAGGAUUGAGCAUCA
B14: chr8:112747817:112747818:+_ENSMUSG00000046441_ENSMUST00000056972|mus_mus|FALSE|FALSE (ssRNA)
RNA: GGGAGUUCUACAGUCCGACGAUCAAUGACCUUUGGUUUUGGCUUAAAGCUGUUCUUUCUUAUUAGUUGAAGUAGUUAUAGCUAGCAAAAGUCAUACAAAAAAAAAAUCUGUAUUUCAUUUCAAUUCAAAGAAAAUGAAGCCACCAACAGAGGAUUGAGCAUCA

target: T1, UNK ZnF1-3 (human, UniProt Q9C0B0 31-174); experiment: nsRBNS (natural sequence RNA bind-n-seq); RBNS binding buffer (assumed for nsRBNS): 25 mM Tris pH 7.5, 150 mM KCl, 3 mM MgCl2, 0.01% Triton X-100, 500 ug/ml BSA, 20 U/ml SUPERase-In, 4 C; UNK is unkempt and MSI1 is Musashi-1; names of the RNAs are library labels; protein concentration not given here; high values mean tight binding
T1 sequence: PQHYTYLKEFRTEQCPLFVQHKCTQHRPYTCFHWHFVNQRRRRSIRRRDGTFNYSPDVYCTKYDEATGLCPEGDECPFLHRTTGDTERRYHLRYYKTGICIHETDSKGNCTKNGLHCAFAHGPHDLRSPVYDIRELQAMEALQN

| Binder | binding signal [enrichment R] |
| --- | --- |
| B1 | 1.04 |
| B2 | 1.19 |
| B3 | 1.5 |
| B4 | 1.46 |
| B5 | 0.704 |
| B6 | 0.69 |
| B7 | 0.961 |
| B8 | 1.49 |
| B9 | 1.3 |
| B10 | 0.444 |
| B11 | 1.29 |
| B12 | 1.41 |
| B13 | 0.913 |
| B14 | 0.679 |
